The record followed here is article PMC10668032.

This is one part of the list. At the low end of the ranking the order means little.

The assay addresses SIX1 homeodomain (reference allele) (UniProt Q15475). Description: universal protein binding microarray. Conditions: Universal all-10-mer PBM (8x60K, AMADID 030236), 300 nM GST-tagged protein, Alexa Fluor 488 anti-GST; buffer, salt, pH and temperature not stated; high values mean tight binding; most listed sequences are background and not binding sites; double strand, one strand shown.
Regarding AAGCGAGG, the binding signal was -0.0432 E-score.

GAATCTTA: the binding signal is -0.176 E-score.

Regarding ATACGCTA, the binding signal turned out to be 0.281 E-score.

In the case of ACGACAGT, the binding signal is -0.174 E-score.

For the sequence CATTCTGG, the binding signal is -0.183 E-score.

As for ATCGGCGA, the binding signal was 0.263 E-score.

Consider TAGGACAA, for which the binding signal is -0.0381 E-score.

As for AGAACGAC, the binding signal was -0.0982 E-score.

Regarding CCGTGGGA, the binding signal is -0.111 E-score.

With CATGCTGC, the binding signal is -0.192 E-score.

Regarding AGATATGA, the binding signal is 0.291 E-score.

As to AGAAGCTA, the binding signal is -0.0476 E-score.

For the sequence ATGCCTGG, the binding signal was -0.0281 E-score.

As for ACACCTCC, the binding signal was found to be 0.347 E-score.

In the case of AGCCTCGG, the binding signal was -0.0606 E-score.

With ACTTATTG, the binding signal was -0.17 E-score.

In the case of TGGTAAAA, the binding signal was -0.187 E-score.

Consider AAGAATCC, for which the binding signal was 0.127 E-score.

With GGGGTATA, the binding signal worked out at 0.441 E-score.

With GGCGTTAC, the binding signal was -0.0948 E-score.

Turning to GTTGTGCA, the binding signal was -0.21 E-score.

Consider AGCGCATC, for which the binding signal is -0.063 E-score.

For AAAACAGG, the binding signal was -0.187 E-score.

Consider ACCCCTAT, for which the binding signal is 0.339 E-score.

In the case of ACATTCTC, the binding signal is -0.228 E-score.

As for ACACCCAT, the binding signal turned out to be 0.271 E-score.

Regarding CAAGTGCA, the binding signal was -0.248 E-score.

With AGGCTAGA, the binding signal is -0.102 E-score.

Consider AGGCGACG, for which the binding signal is -0.188 E-score.

Regarding AGCGTCTC, the binding signal came to 0.0912 E-score.

Consider TGGGCACA, for which the binding signal was -0.0211 E-score.

As for CCCCAGTA, the binding signal was 0.0352 E-score.

For CGTCTGCA, the binding signal is -0.0977 E-score.

On to TAGCGGGA, for which the binding signal was -0.0673 E-score.

With ACGACAAG, the binding signal was -0.0528 E-score.

As for CTCCGCAG, the binding signal was -0.107 E-score.

For AAGGATTC, the binding signal was -0.0708 E-score.

Regarding AATAGAGT, the binding signal is -0.162 E-score.

For the sequence CTGGACTC, the binding signal is -0.18 E-score.

As to AGTCCGGC, the binding signal is -0.205 E-score.

Take AATGTCTC: the binding signal is 0.0976 E-score.

With GGTACAGA, the binding signal came out at 0.0115 E-score.

For ATGAGACG, the binding signal turned out to be 0.251 E-score.

On to CTCGCGGA, for which the binding signal is 0.0543 E-score.

In the case of AGCCTATG, the binding signal was -0.123 E-score.

Consider GTCAGGAC, for which the binding signal is -0.162 E-score.

With ATCCACAC, the binding signal was determined as 0.296 E-score.

In the case of ATAGAACA, the binding signal was found to be 0.0467 E-score.

As for CATTCATA, the binding signal is 0.0087 E-score.

In the case of AACCTCGG, the binding signal is -0.0299 E-score.

On to TCTACAGA, for which the binding signal is -0.114 E-score.

Take CATTATGC: the binding signal came to 0.0719 E-score.

CCAGGAAG: the binding signal was -0.145 E-score.

Consider CGTAAGTC, for which the binding signal was -0.127 E-score.

For AAATTATT, the binding signal is -0.26 E-score.

Take CAAATATG: the binding signal turned out to be 0.061 E-score.

Consider CTCAACTA, for which the binding signal was -0.0318 E-score.

With TAAGTACA, the binding signal was -0.0744 E-score.

Turning to CAGCTGAA, the binding signal was -0.268 E-score.

In the case of TTAAACAA, the binding signal was -0.272 E-score.

With CCTATCCC, the binding signal amounted to 0.291 E-score.

On to TAGCCATA, for which the binding signal is 0.127 E-score.

Consider AAGAAAAC, for which the binding signal was -0.248 E-score.

ATAGTTGC: the binding signal was determined as 0.0147 E-score.

As to AGTACGCC, the binding signal came to 0.0371 E-score.

Consider GAAACCGC, for which the binding signal stood at 0.0868 E-score.

On to AGCGACGC, for which the binding signal was -0.199 E-score.

With ACCGCAAT, the binding signal was 0.0086 E-score.

For the sequence CAAGCTTA, the binding signal was -0.13 E-score.

For GATGGAAC, the binding signal is -0.0968 E-score.

For CGTGGGCC, the binding signal was -0.262 E-score.

For AAACTACT, the binding signal was -0.0526 E-score.

In the case of AGCGTGAT, the binding signal was 0.203 E-score.

Regarding CGTTATAC, the binding signal was 0.204 E-score.

As to GTTGCGAA, the binding signal is -0.214 E-score.

Consider AACGATCG, for which the binding signal is 0.0917 E-score.

As for AGCTGCCC, the binding signal came to 0.0523 E-score.

For the sequence CATATATC, the binding signal came to 0.341 E-score.

With AGTTTCCG, the binding signal is -0.225 E-score.

Regarding ACATTATG, the binding signal is 0.0141 E-score.

As to AGAGGTTA, the binding signal was -0.169 E-score.

In the case of CTAGCGCA, the binding signal was -0.153 E-score.

With CCGAGCGA, the binding signal was 0.0573 E-score.

As for GCTGAGTA, the binding signal was -0.161 E-score.

As for GGTATACC, the binding signal stood at 0.464 E-score.

With CTGGACCC, the binding signal is -0.11 E-score.

For GACTGTGA, the binding signal is -0.119 E-score.

Regarding AGAATCCA, the binding signal was -0.00306 E-score.

For ATATATTG, the binding signal turned out to be 0.238 E-score.

Take CTATACGC: the binding signal was found to be 0.215 E-score.

Turning to AGACTCTC, the binding signal is -0.105 E-score.

On to GTTAGCAA, for which the binding signal was -0.238 E-score.

As to ACGCTTGC, the binding signal is -0.183 E-score.

On to AGGCATTA, for which the binding signal was 0.0197 E-score.

Regarding CATGCGAA, the binding signal amounted to 0.0262 E-score.

Consider CAAATAGA, for which the binding signal turned out to be 0.0634 E-score.

As for ACGATCAC, the binding signal is 0.177 E-score.

As to CCTAATTC, the binding signal is -0.0644 E-score.

In the case of GGATGGAC, the binding signal is -0.0612 E-score.

Turning to CAGGATGC, the binding signal is -0.000825 E-score.

For the sequence CCATAAGG, the binding signal is -0.154 E-score.

CGCAGGAC: the binding signal was -0.0697 E-score.

For the sequence ATCAGATA, the binding signal turned out to be 0.378 E-score.

On to AGGTGGGC, for which the binding signal was -0.238 E-score.

Take GCGGTAGC: the binding signal is -0.0389 E-score.

As to CCGGAAAG, the binding signal was -0.0595 E-score.

ACGTTCAA: the binding signal was -0.157 E-score.

Turning to AATCATCG, the binding signal is -0.0775 E-score.

Turning to CTACGCTA, the binding signal is -0.15 E-score.

In the case of GTACGGCA, the binding signal is -0.0935 E-score.

Turning to CTTGATAC, the binding signal worked out at 0.442 E-score.

As for AACTACAT, the binding signal was -0.0778 E-score.

As for CGTTAACA, the binding signal is -0.138 E-score.

Consider ATATGGAA, for which the binding signal was found to be 0.203 E-score.

Regarding ATTTGCCG, the binding signal was -0.188 E-score.

For CAGCACAA, the binding signal was -0.049 E-score.

For AATGCAAT, the binding signal was -0.187 E-score.

With CCGAGAGG, the binding signal was -0.1 E-score.

With CTCAGCGC, the binding signal was -0.0859 E-score.

Regarding CTTCGATC, the binding signal was found to be 0.152 E-score.

On to GGTACGCA, for which the binding signal was -0.0176 E-score.

Consider GGGCCGGA, for which the binding signal was -0.0424 E-score.

Consider AGCTCATA, for which the binding signal turned out to be 0.146 E-score.

Take AAGACGAT: the binding signal was 0.17 E-score.

Turning to GAAATGCA, the binding signal is -0.0981 E-score.

For the sequence GAGCTCAA, the binding signal was -0.0962 E-score.

For ACCACACT, the binding signal was -0.0791 E-score.

Consider AGGATTCA, for which the binding signal is -0.0234 E-score.

For CCATTTGC, the binding signal is -0.189 E-score.

On to AGATGGTC, for which the binding signal was -0.165 E-score.

On to AGTCATCG, for which the binding signal is -0.0315 E-score.

As to CCGCACTC, the binding signal is 0.0317 E-score.

Turning to GCGCTGCA, the binding signal was -0.253 E-score.

For the sequence GGAATCTA, the binding signal worked out at 0.0166 E-score.

For the sequence CTCCTATC, the binding signal amounted to 0.271 E-score.

Regarding GAGAGAGA, the binding signal worked out at 0.0688 E-score.

As to AATCGATA, the binding signal was determined as 0.335 E-score.

Regarding GAAGAACA, the binding signal is -0.131 E-score.

For AGAAGCAA, the binding signal is -0.255 E-score.

Turning to AGAACCCC, the binding signal came to 0.034 E-score.

As to AGGCTTAT, the binding signal is -0.0517 E-score.

As for CCCGTACA, the binding signal is -0.243 E-score.

Regarding GAGGGAAA, the binding signal was -0.24 E-score.

As for ATGCCTTG, the binding signal is -0.182 E-score.

Turning to CGGCTGTA, the binding signal is -0.139 E-score.

With GCCAGCTA, the binding signal is -0.144 E-score.

With ACTTTACC, the binding signal is -0.101 E-score.

AGTCGGAT: the binding signal worked out at 0.296 E-score.

For the sequence CGTTGTTA, the binding signal was -0.0655 E-score.

As to CGCTCGAG, the binding signal was -0.12 E-score.

As to GCAGGACC, the binding signal is -0.0817 E-score.

With ACCGACTA, the binding signal is -0.202 E-score.

On to GAAATCTC, for which the binding signal is -0.199 E-score.

Turning to GGTCTTTA, the binding signal is 0.0182 E-score.

Take AGTATAGG: the binding signal is 0.0935 E-score.

Regarding GACTCATA, the binding signal stood at 0.0327 E-score.

With AACGCCGC, the binding signal was -0.243 E-score.

In the case of AACGACCA, the binding signal is -0.101 E-score.

As to ACGCTGCC, the binding signal is -0.0891 E-score.

For GCGAATGA, the binding signal was -0.0128 E-score.

On to CACGCTTC, for which the binding signal is -0.244 E-score.

As for CAGTTGGG, the binding signal is -0.0965 E-score.

Take ACACCAGT: the binding signal was found to be 0.329 E-score.

As for AGCGACGA, the binding signal is -0.0866 E-score.

With CCGAACGC, the binding signal was -0.194 E-score.

Regarding CGTTCGGC, the binding signal is -0.085 E-score.

Take CAGTGCCC: the binding signal was -0.0785 E-score.

On to GTTTGTGA, for which the binding signal came out at 0.0527 E-score.

With AAGTGAGC, the binding signal was -0.00863 E-score.

For AGCAGGTA, the binding signal was 0.064 E-score.

As to GAGTGTGC, the binding signal is -0.154 E-score.

For AGTTCAAC, the binding signal was -0.224 E-score.
